Test results published in PubChem BioAssay (NCATS).
Several values for one entry are separate records, joined by “and”; a condition that tells them apart may be missing. Equal values may be shown once. This list was built around the results that the source calls inconclusive (neither active nor inactive); the mix of calls is not that of the screen. Potencies beside an inconclusive call are fits to weak or partial responses and may not hold up. Activity calls are given as the source filed them. The call rests on the fitted dose curve; in most records, active means well fitted inhibition curve with a large enough effect; inconclusive means small, poorly fitted or top-dose-only effect; inactive means flat fitted curve, though single readings scatter.

test system: Zika virus NS2B-NS3 protease; assay: Primary screen GU AMC qHTS for Zika virus inhibitors (AID 1347154); settings: Zika NS2B-NS3 unlinked protease, AMC fluorogenic substrate; series mostly up to 54.1 µM; further: nearly all actives have a fitted effect of over 70% in size
From the text: Avindra Nath, Ph.D., National Institute of Neurological Disorders and Stroke (NINDS), Bethesda, MD
Radhakrishnan Padmanabhan, Ph.D., Georgetown University (GU), Washington D.C.
Zika Virus causes congenital defects, including microcephaly and is associated with Guillain-Barre syndrome, eningoencephalitis and myelitis in infected adult. […] Using a target-based approach, we hope to establish a screening paradigm to uncover novel, cell-active NS2B-NS3 protease (Zika Virus) specific inhibitors from NCATS' collection of small molecules using qHTS.
Early Translation Branch (ETB)
National Center for Advancing Translational Sciences (NCATS), Rockville, MD
National Institute of Health (NIH), Bethesda, Maryland
Padmanabhan lab provided the NS2B hydrophilic domain and NS3 protease domain in a noncovalent complex used for the unlinked assay. Control compound aprotinin is obtained from Thermo Scientific (#78432; Waltham, Massachusetts). NS2B-NS3 AMC substrate (Bz-Nle-Lys-Arg-Arg-AMC; Nle-KRR-AMC) purchased from Bachem (#I-1995; Torrance, CA). Ac-VKTGKR-AMC purchased from Genscript or Bachem, Ac-FAAGKR-AMC purchased from Genscript, Ac-GLVKRR-AMC purchased from Genscript, Ac-LKKR-AMC purchased from Genscript.
GU AMC unlinked NS2B-NS3 protease qHTS protocol
Briefly, 3 microL of Zika virus unlinked NS2B-NS3 protease (25 nM for linked final concentration), in assay buffer (10 mM Tris-HCl pH 8.0 with 0.01% Tween 20) was dispensed into a 1,536-well solid-bottom black plate (Greiner Bio One, Monroe, NC). […] Plates were then read immediately on a ViewLux High-throughput CCD imager (PerkinElmer, Waltham, MA) equipped with standard UV fluorescence optics (340(30) nm excitation, 450(20) nm emission) then incubated (room temperature, protected from light) for 15 minutes (~20% conversion). The change in fluorescence intensity over the 15-minute reaction period was normalized against no-inhibitor and no-enzyme controls and the resulting percent inhibition data were fitted to a 4-parameter Hill equation. Aprotinin was used as the intraplate control.
Potency means the concentration at half of the fitted maximal effect; tags describe the fitted curve by direction and shape.

| SMILES | Potency |
| --- | --- |
| CC(C)(C)c1[nH]cnc1C=c1[nH]c(=O)c(=Cc2ccccc2)[nH]c1=O | inconclusive: 3.12 µM [inhibitor, partial curve] |
| CCCCCCCCCCCCCC(=O)N[C@H](CO)[C@H](O)c1ccc([N+](=O)[O-])cc1 | inconclusive: 15.2 µM [inhibitor, partial curve] |
| CC(C)=CC[C@@H](O)C1=CC(=O)c2c(O)ccc(O)c2C1=O | inconclusive: 27.1 µM [inhibitor, single point] |
| OC(CN1CCN(c2cccc(Cl)c2)CC1)C(c1ccccc1)c1ccccc1 (stereo not given) | inconclusive: 38.3 µM [inhibitor, single point] |
| CC(C)n1c(C=C[C@H](O)C[C@H](O)CC(=O)O)c(-c2ccc(F)cc2)c2ccccc21 | inconclusive: 21.5 µM [inhibitor, partial curve] |
| COc1cc(C)c(C=CC(C)=CC=CC(C)=CC(=O)O)c(C)c1C | inconclusive: 9.61 µM [inhibitor, full curve] |
| Cc1nc2n(c(=O)c1CCN1CCC(c3noc4cc(F)ccc34)CC1)CCCC2 | inconclusive: 0.607 µM [inhibitor, full curve] |
| O=C(O)c1c(Cl)c(Cl)c(Cl)c(Cl)c1-c1c2cc(I)c(=O)c(I)c-2oc2c(I)c(O)c(I)cc12 | inconclusive: 3.41 µM [inhibitor, full curve] |
| NCCc1cnc[nH]1 | inactive |
| CNC(=O)[C@H](Cc1ccccc1)NC(=O)[C@H](CC(C)C)[C@H](CSc1cccs1)C(=O)NO | inactive |
| CC[C@H]1OC(=O)[C@H](C)[C@@H](O[C@H]2C[C@@](C)(OC)[C@@H](O)[C@H](C)O2)[C@H](C)[C@@H](O[C@@H]2O[C@H](C)C[C@H](N(C)C)[C@H]2O)[C@](C)(O)C[C@H](C)C(=NOCOCCOC)[C@H](C)[C@@H](O)[C@]1(C)O | inconclusive: 24.1 µM [inhibitor, single point] |
| C[C@H]1c2cccc(O)c2C(O)=C2C(=O)[C@]3(O)C(O)=C(C(N)=O)C(=O)[C@@H](N(C)C)[C@@H]3[C@@H](O)[C@@H]21 | inconclusive: 17.8 µM [inhibitor, partial curve] and inconclusive: 29.9 µM [inhibitor, single point] |
| Cc1ccn(-c2ccc(-c3ncco3)cc2)c(=O)c1-c1ccc2nc(N)ncc2c1 | active: 21.5 µM |
| Nc1ncnc2nc(-c3ccc(N4CCOCC4)nc3)cc(-c3cccc(Br)c3)c12 | inconclusive: 15.2 µM [inhibitor, partial curve, poor fit] |
| Clc1ccccc1C(c1ccccc1)(c1ccccc1)n1ccnc1 | inconclusive: 1.12 µM [inhibitor, partial curve, poor fit] |
| c1ccc(-c2nn3c(c2-c2ccnc4cc(OCCN5CCOCC5)ccc24)CCC3)nc1 | inactive |
| Cc1c(C)n(Cc2ccc(-c3ccccc3C(=O)O)cc2)c2ccc(C(=O)N[C@@H](C)c3ccc([N+](=O)[O-])cc3)cc12 | active: 19.2 µM |
| CC1(C)SCCN(S(=O)(=O)c2ccc(OCC#CCO)cc2)[C@@H]1C(=O)NO | inconclusive: 9.61 µM [inhibitor, partial curve, poor fit] |
| CN(C)c1ccc(O)c2c1C[C@H]1C[C@H]3[C@H](N(C)C)C(=O)C(C(N)=O)=C(O)[C@@]3(O)C(=O)C1=C2O | inconclusive: 27.1 µM [inhibitor, single point] and inconclusive: 31.6 µM [inhibitor, partial curve] and inconclusive: 37.7 µM [inhibitor, partial curve, poor fit] |
| COc1ccc2nc3cc(Cl)ccc3c(Nc3cc(CN4CCCC4)c(O)c(CN4CCCC4)c3)c2n1 | inconclusive: 0.0096 µM [inhibitor, full curve] |

| SMILES | Potency |
| --- | --- |
| CCOC(=O)N[C@@H]1CC[C@@H]2[C@@H](C1)C[C@H]1C(=O)O[C@H](C)[C@H]1[C@@H]2C=Cc1ccc(-c2cccc(F)c2)cn1 | inconclusive: 24.1 µM [inhibitor, partial curve, poor fit] |
| Cn1c(=O)c(Oc2ccc(F)cc2F)cc2cnc(NC3CCOCC3)nc21 | inconclusive: 3.83 µM [inhibitor, partial curve, poor fit] |
| CC(C)(C)OC(=O)N[C@H]1CCCCCC=C[C@@H]2C[C@@]2(C(=O)NS(=O)(=O)C2CC2)NC(=O)[C@@H]2C[C@@H](OC(=O)N3Cc4cccc(F)c4C3)CN2C1=O | inconclusive: 17.1 µM [inhibitor, partial curve] |
| COc1ccc2cccc(CCNC(C)=O)c2c1 | inactive |
| C=CCc1ccc(O)c(-c2ccc(O)c(CC=C)c2)c1 | inconclusive: 21.5 µM [inhibitor, partial curve] |
| COC(=O)N[C@H](C(=O)N1CCC[C@@H]1c1ncc(-c2ccc(-c3ccc(-c4cnc([C@@H]5CCCN5C(=O)[C@@H](NC(=O)OC)C(C)C)[nH]4)cc3)cc2)[nH]1)C(C)C | active: 30.4 µM |
| Cn1cc(-c2ccc3nnc(C(F)(F)c4ccc5ncccc5c4)n3n2)cn1 | inconclusive: 10.8 µM [inhibitor, full curve] |
| CS(=O)(=O)N1CCN(Cc2cc3nc(-c4cccc5[nH]ncc45)nc(N4CCOCC4)c3s2)CC1 | inconclusive: 19.2 µM [inhibitor, partial curve] |
| O=C(O)C1=CO[C@@H](O[C@@H]2O[C@H](CO)[C@H](O)[C@H](O)[C@H]2O)[C@@H]2C(CO)=CC[C@H]12 | inactive |
| COc1ccc2cc(-c3nc(-c4ccc(S(C)=O)cc4)[nH]c3-c3ccncc3)ccc2c1 (stereo not given) | active: 17.1 µM |
| S=c1nc[nH]c2nc[nH]c12 | inactive |
| C=CCc1cc(OC)c(O)c(C(=O)NCCO)c1 | inconclusive: 0.121 µM [inhibitor, full curve, poor fit] |
| O=C(O)C(O)Cc1ccc(O)c(O)c1 (stereo not given) | inconclusive: 24.1 µM [inhibitor, partial curve] |
| Cc1coc2c1C(=O)C(=O)c1c-2ccc2c1CCCC2(C)C | inconclusive: 3.77 µM [inhibitor, partial curve] and inconclusive: 2.51 µM [inhibitor, full curve, poor fit] |
| COC(=O)C[C@](O)(CCCC(C)(C)O)C(=O)O[C@@H]1C(OC)=C[C@]23CCCN2CCc2cc4c(cc2[C@H]13)OCO4 | inconclusive: 19.2 µM [inhibitor, partial curve] |
| O=c1c(O)c(-c2cc(O)c(O)c(O)c2)oc2cc(O)cc(O)c12 | active: 9.61 µM |
| CCCN[C@H]1CCc2nc(N)sc2C1 | inactive |
| O=C(C1CC1)N1CC[C@@H](Cn2c(-c3ccc(-c4ccc5occc5c4)cc3)nc3cnccc32)C1 | active: 10.8 µM |
| COc1ccc(-c2nc3ccc(C4=NNC(=O)CC4C)cc3[nH]2)cc1 (stereo not given) | inconclusive: 16.1 µM [inhibitor, full curve] |
| CCn1c(C(=O)N(C2CC2)C2CC2)cc2c3c(ncn3C)c(Nc3cc(C)n(C)n3)nc21 | inconclusive: 6.81 µM [inhibitor, partial curve] |
